# Test results published in the supplement of paper PMC3334620.
# Over roughly 33,000 sequences, “E-score (-0.5 to 0.5)” has its median near -0.041; the highest 2% begin near 0.37. This is one part of the list.
# Biological target: T1, Ecm22 (UniProt Q05958)
# T1 sequence: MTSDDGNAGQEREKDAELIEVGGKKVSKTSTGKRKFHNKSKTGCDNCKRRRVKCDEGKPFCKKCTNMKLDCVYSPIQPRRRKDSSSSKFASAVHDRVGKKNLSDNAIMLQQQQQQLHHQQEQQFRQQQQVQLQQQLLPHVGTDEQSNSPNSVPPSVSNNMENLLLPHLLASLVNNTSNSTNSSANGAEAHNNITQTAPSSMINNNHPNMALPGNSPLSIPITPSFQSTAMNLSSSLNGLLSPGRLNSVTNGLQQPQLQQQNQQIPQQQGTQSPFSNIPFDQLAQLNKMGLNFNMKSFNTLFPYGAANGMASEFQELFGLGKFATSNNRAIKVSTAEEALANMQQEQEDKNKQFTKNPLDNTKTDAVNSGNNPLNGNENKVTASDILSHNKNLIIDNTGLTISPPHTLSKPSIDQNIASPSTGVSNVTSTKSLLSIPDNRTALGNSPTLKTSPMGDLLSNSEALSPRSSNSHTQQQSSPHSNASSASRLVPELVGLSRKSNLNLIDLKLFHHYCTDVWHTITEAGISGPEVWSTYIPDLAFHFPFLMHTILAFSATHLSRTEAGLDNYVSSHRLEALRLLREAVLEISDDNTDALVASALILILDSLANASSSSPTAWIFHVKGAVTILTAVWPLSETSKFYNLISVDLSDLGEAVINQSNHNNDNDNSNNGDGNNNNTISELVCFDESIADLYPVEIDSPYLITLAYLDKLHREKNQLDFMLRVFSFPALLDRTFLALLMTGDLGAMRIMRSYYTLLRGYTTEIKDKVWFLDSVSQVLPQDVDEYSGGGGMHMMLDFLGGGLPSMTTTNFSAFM
# Experiment: PBM E-score (8-mer binding enrichment) (E-score (-0.5 to 0.5)); higher = stronger / more preferred TF binding; most listed sequences are background and not binding sites
# Settings: protein concentration: 200 nM; construct: GST-full length
# In short: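 Full-length yeast transcription factors or their DNA-binding domains, GST-tagged and expressed with PURExpress, were applied at about 100-200 nM to universal all-10-mer Agilent arrays. These arrays had been made double-stranded by primer extension on fresh or once-stripped slides. Detection used fluorescent anti-GST, normalisation used masliner, and E-scores for ungapped eight-base words pooled with reverse complements came from the Universal PBM Analysis Suite.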
row,Sequence,PBM E-score
1,AGAGATCG,0.00312
2,AACCGCTC,0.104
3,AGAAGCAA,-0.0442
4,ACCATCGC,0.0639
5,ACTTTTGA,-0.147
6,ACAATACG,0.335
7,CGACTTCA,0.142
8,ACACACTG,0.0804
9,ACTGCAAG,-0.116
10,CCAGAGTA,-0.15
11,CTGCCAGC,-0.24
12,GGAGAGTA,-0.176
13,TCTTAGAA,-0.126
14,CACTTATA,0.166
15,ACACATAT,-0.0183
16,CACTAAGG,-0.109
17,CTGAGGTA,-0.0705
18,GCGTGATA,0.127
19,CAATGACC,-0.054
20,CATTGTTC,-0.0668
21,GCTATTGA,-0.0201
22,AAAGTGCC,-0.251
23,AATAGCCG,-0.134
24,ACTTCATA,-0.101
25,CACGGATA,0.0566

row,Sequence,PBM E-score
1,ACAGTGCA,-0.0729
2,GTTGCTTA,0.0243
3,CGAGTTTA,0.159
4,AACTTTGC,-0.0161
5,AACATCCG,0.158
6,GCGTGTTA,0.0245
7,CCACTTTA,0.0441
8,CCCTAACG,0.0397
9,AAACCGAA,0.179
10,CCAAATTA,-0.0696
11,CCTACACA,-0.12
12,ACCCATCG,0.0454
13,TCAGCTGA,-0.0348
14,ACCATCCG,-0.0185
15,ACTTTGCG,0.071
16,ATGAGCAG,-0.189
17,ATGCCGGG,-0.159
18,ACGGTAGA,0.0495
19,CGGATGAG,-0.0455
20,AGACAACG,0.0578
21,AATTATAC,0.281
22,AAAAGAGA,0.00204
23,CACCGGTG,-0.131
24,ATTGATGG,-0.0207
25,CGACGGAG,0.16

row,Sequence,PBM E-score
1,CCTACGAA,0.192
2,CCGTTCAC,0.112
3,GAAGGTCA,-0.171
4,ACCTCCTC,-0.139
5,CCCTTCTC,-0.218
6,GAATCTCC,-0.00162
7,CGCATCGC,0.145
8,CCGAAAGA,0.0474
9,CTTGTGTA,0.0457
10,ATCCTCCG,0.0278
11,CGACACTC,0.206
12,GACAATAA,-0.0114
13,CTAGTAAC,-0.169
14,CAGCGCGG,-0.0854
15,ATCGTCGC,0.252
16,ACGTACTA,0.188
17,CGATTCTC,-0.0102
18,GAGGGGAA,0.00187
19,GACCCGCA,0.00101
20,CCTACTCC,-0.277
21,GCGCTCCA,-0.112
22,ACGGGCCC,0.0438
23,CGGACGAA,0.198
24,GGACTTGA,-0.2
25,ATTCTTGG,-0.0722

row,Sequence,PBM E-score
1,ATTAAACC,-0.0934
2,ATCAATGA,0.205
3,AGACCCCT,-0.299
4,GGCCCACC,-0.182
5,CATATTCG,0.106
6,GCGTATAA,0.394
7,GTAGACAA,0.0404
8,ACATCAAG,-0.119
9,CTGATCCA,-0.21
10,ATCTATAG,-0.164
11,GAGTGCTA,0.0828
12,AACTCCGG,0.0763
13,CGCGCTCC,0.117
14,AGTTTGTC,-0.103
15,ACGGTATG,0.133
16,AGTTACCG,0.0445
17,ATCGCTAC,0.148
18,AAATCAAA,-0.175
19,TGAACCAA,-0.0617
20,AACAAGCC,-0.0852
21,AAAGAGCG,0.135
22,GCCCCACA,0.0569
23,GCGGGTCC,-0.101
24,CGTCCTTA,-0.0472
25,GCTATTCC,-0.196

row,Sequence,PBM E-score
1,AATATAGG,0.104
2,TCGAACAA,0.109
3,CGTGGGAC,-0.0101
4,CTGGCTCA,-0.241
5,GAAGGAGC,-0.174
6,ACATCTGG,0.0224
7,CTCCACGA,-0.0272
8,CCAGGGCG,-0.202
9,ATGCCTTG,-0.0994
10,GAATTGAC,-0.0283
11,AATATTCA,-0.128
12,CAACAGTA,0.00245
13,AAGTCCCA,-0.119
14,CTGAGTGA,-0.0742
15,AGTAGATC,-0.0961
16,ACCGACAA,0.185
17,AAAAAGCG,0.0833
18,GGGGCTCA,-0.275
19,AAAGAAAT,0.0461
20,CCCTATCC,0.00567
21,CACTTACA,-0.0774
22,GCTGTCGA,0.0391
23,ATTCCCCG,-0.0989
24,CACTGCTG,-0.147
25,CATTTGAG,-0.115

row,Sequence,PBM E-score
1,AATTTCAT,-0.0174
2,CGGGACCA,-0.246
3,CTCGGGTA,0.272
4,ACAGGTCA,-0.0628
5,AAGACCTA,-0.139
6,ACAGCGCC,-0.0248
7,CGCCCGTC,-0.0401
8,AATACGGG,0.229
9,GTCGGAAA,0.248
10,GTGTACTA,0.207
11,ATTCTACG,0.25
12,GCGCCGCC,0.0635
13,GTAAGGTA,0.158
14,CAGTTCTC,-0.0842
15,GATGCGTA,0.166
16,AGAGGAAT,-0.0801
17,ATGCCCTG,-0.256
18,CAAGCTTG,-0.327
19,ACATAATC,0.194
20,CTATCTCA,-0.201
21,AGACTTTC,-0.337
22,AAACCCCC,-0.299
23,ATGAGCCG,-0.118
24,GAGTTCCC,-0.0826
25,AGAGTATA,0.0674

row,Sequence,PBM E-score
1,ACCTTCTG,-0.0813
2,TCTACAAA,-0.0993
3,ACTTGAGA,-0.0267
4,AATGTAGT,-0.114
5,AATCTTAT,-0.129
6,AACATGTA,0.0275
7,AGCAATAC,0.14
8,ACTTTCCG,-0.0559
9,ATCAATTA,0.139
10,ACCTTGGG,-0.21
11,AGGTGGCG,-0.138
12,TGTGTGAA,-0.0519
13,GAGCCGGC,-0.0401
14,TCATGAAA,0.0405
15,AGTTTATG,-0.158
16,CTAAGATA,-0.161
17,CACCTCTC,-0.332
18,ATGTGTCG,0.163
19,CAGTTCGG,0.0228
20,CGTGAGCC,-0.0587
21,GTTTTCGA,0.0691
22,GGGGTGGA,-0.285
